Hit rate of the full screen: of about 50,000 compounds, about 800 (1.6%) showed an effect of 50% or more. The list shows a part of the results.
The compounds below were run against Bcl-2-like protein 10 (Homo sapiens) (UniProt Q9HD36) (assay: TR3 peptide-Bcl-B binding displacers, biochemical primary FP assay, phenotype converters (AID 1240;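 note: 0% = Bcl-B with tracer peptide and DMSO and 100% = tracer peptide lacking Bcl-B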)). Settings: GST-Bcl-B / FITC-TR3 peptide fluorescence polarization; stronger effect = higher value; compound at 3.75 mg/L.
UniProt Q9HD36, sequence (Q9HD36 whole entry, looked up): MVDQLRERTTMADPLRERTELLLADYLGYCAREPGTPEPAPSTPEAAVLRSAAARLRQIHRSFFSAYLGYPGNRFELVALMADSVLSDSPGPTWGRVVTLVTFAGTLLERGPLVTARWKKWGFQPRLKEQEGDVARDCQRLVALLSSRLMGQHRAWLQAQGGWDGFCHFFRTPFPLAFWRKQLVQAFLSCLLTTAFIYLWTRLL
`CCN(CC)c1ccc(Nc2nc(-c3sc(C)nc3C)cs2)cc1` was tested, and the displacement was 13.3%.
With `Cc1cc(=O)[nH]c(Sc2nnc(-c3ccccc3)c3ccccc23)n1` the displacement was -5.4%.
For `Oc1c(C=Nc2cccc3nsnc23)sc2ccccc12`, the displacement was -12.3%.
`COc1ccc(-c2cc(C(=O)Nc3ccc(Br)cc3)c3ccccc3n2)c(OC)c1` was tested, and the displacement was -8.9%.
In the case of `O=C(Nc1ccccc1C(=O)Nc1ccc(Br)cn1)c1ccccc1Cl`, the displacement is reported as -14%.
For `CCCOC(=O)C1=C(C)NC(=O)NC1c1ccccc1Cl` (stereo not given), the displacement was 6.4%.
For `O=S(=O)(c1ccc2c(c1)OCCO2)N1CCCCC1`, the displacement was -13.4%.
Compound `COc1cc(OC)c(OC)cc1/C=N/NC(=O)c1cccnc1` has a displacement of -0.8%.
`CCOc1ccc(N(CC(=O)NCCSc2ccccc2)S(C)(=O)=O)cc1` was tested, and the displacement was 11.4%.
For `O=C(Nc1ccc(/C=C/c2ccccc2)cc1)c1ccc(F)cc1`, the displacement was 12.9%.
`COc1ccc(C(=O)N2CCN(Cc3cccnc3)CC2)cc1OC` gave a displacement of -20.8%.
`COc1ccc(/C=N\OCC(=O)Nc2oc(-c3ccccc3)c(-c3ccccc3)c2C#N)cc1` gave a displacement of -4.5%.
Compound `CCOC(=O)c1c[nH]c2ccc(OCC)cc2c1=O` has a displacement of 7.9%.
With `CC(=O)N1CCN(c2ccc(C(=O)c3cccc(F)c3)cc2)CC1` the displacement was 3%.
For `Cc1ccc(-n2c(C)cc(/C=N/NC(=O)CN3CCOCC3)c2C)c(C)c1`, the displacement was -47.1%.
With `O=C(NCCN1CCOCC1)/C(=C/c1ccc(Cl)cc1)NC(=O)c1ccccc1` the displacement was -5.9%.
`CC(=O)N1c2ccc3ccccc3c2C2C=CCC2C1c1ccc(Br)cc1` (stereo not given) gave a displacement of 31.4%.
Compound `CCCOc1ccc(C(=O)Nc2ccc(O)cc2C(=O)O)cc1` has a displacement of -16.3%.
`COc1ccc(/C=C2\SC(=O)N(CC(=O)Nc3ccccc3Cl)C2=O)cc1` gave a displacement of 5.7%.
`O=C(COc1ccc(C2CCCCC2)cc1)Nc1ccccc1C(=O)O` gave a displacement of -17.1%.
`COc1cc(C=C2C(=O)NC(=S)NC2=O)ccc1OCCOc1ccc(C(C)(C)C)cc1` showed a displacement of 4.4%.
`N/C(=N\OC(=O)CCc1ccccc1)c1cccnc1` showed a displacement of 0.9%.
For `Cc1ccc(NCC(O)COc2ccc(OCC(O)CNc3ccc(C)c(C)c3)cc2)cc1C` (stereo not given), the displacement was 2%.
In the case of `COc1ccc(-c2nc3ccccc3c(=O)n2-c2nc3ccccc3n2C)cc1`, the displacement is reported as -9.8%.
For `CCOC(=O)c1ccc(N2NC(=O)/C(=C/c3cc(OC)c(O)c(OC)c3)C2=O)cc1`, the displacement was 10.2%.
`COc1cc(/C=N/NC(=O)c2ccncc2)ccc1OC(=O)c1cccc(F)c1` showed a displacement of 17.1%.
For `O=C(Nc1nnc(-c2ccco2)s1)c1cccc2ccccc12`, the displacement was 15.6%.
For `CC(C)c1ccc(NC(=O)c2ccc(N(C)S(=O)(=O)c3ccccc3)cc2)cc1`, the displacement was 8.4%.
With `N#C/C(=C\c1ccc(-c2ccc(Cl)cc2)o1)c1ccc(Cl)cc1` the displacement was 123%.
With `CCc1ccc(/C(C)=N/Nc2nc(-c3ccccc3)nc(C)c2C)cc1` the displacement was -15.5%.
`CCOc1ccc(N2C(=O)/C(=C/c3ccccc3C(=O)O)SC2=S)cc1` showed a displacement of -6.1%.
With `O=C(CN(Cc1ccccc1)S(=O)(=O)c1ccccc1)Nc1ccc(Oc2ccccc2)cc1` the displacement was 9.8%.
For `COc1cc(OC)c(OC)cc1/C=N/NC(=O)c1cc(C)[nH]n1`, the displacement was -9.4%.
In the case of `COC(=O)c1c(C)oc2ccc(OCC(=O)c3ccc(Br)cc3)cc12`, the displacement is reported as 13.6%.
Work on `COc1ccc(S(=O)(=O)N(CC(=O)NC2CCCCC2)c2cc(C)cc(C)c2)cc1OC` yielded a displacement of -0.9%.
In the case of `O=C(Cc1ccccc1)Nc1ccc(Br)cn1`, the displacement is reported as -1.2%.
With `COc1ccc(NC(=O)C2c3ccccc3Oc3ccccc32)cc1` the displacement was 0.9%.
`CCCC(C)NC(=O)c1ccc([N+](=O)[O-])cc1` (stereo not given) was tested, and the displacement was 1.4%.
`COc1cccc(NC(=S)NC(=O)c2cccs2)c1` was tested, and the displacement was -2.1%.
For `COc1cc(C2C(C(=O)OCCOc3ccccc3)=C(C)NC3=C2C(=O)CC(C)(C)C3)cc(Cl)c1O` (stereo not given), the displacement was -5.4%.
`CCOC(=O)c1c(NC(=S)NC(=O)c2ccccc2)sc2c1CCC(C)C2` (stereo not given) showed a displacement of 14.8%.
In the case of `CCOC(=O)c1ccc(NC(=O)c2ccc3c(c2)OCO3)cc1`, the displacement is reported as -1.6%.
Work on `O=C(Nc1ccc(Cc2ccncc2)cc1)c1cc(F)c(F)cc1Cl` yielded a displacement of -1.1%.
`COc1ccc(NC(=O)c2nn3c(c2Cl)NC(c2ccco2)CC3C(F)(F)F)cc1OC` (stereo not given) gave a displacement of -1.6%.
Work on `CC(=O)Nc1ccc(S(=O)(=O)Nc2cccc(C(=O)Nc3nccs3)c2)cc1` yielded a displacement of -17.4%.
`O=C(/C=C/c1ccc(Br)cc1)NC(=S)NCCCN1CCOCC1` showed a displacement of 12.4%.
Compound `CC(=O)c1ccc(OC(=O)c2ccc([N+](=O)[O-])cc2)cc1` has a displacement of -3.5%.
With `CC(=O)CC(=O)Nc1ccc2ccccc2c1` the displacement was 5.6%.
Work on `Cc1ccc(NC2=NS(=O)(=O)c3cc([N+](=O)[O-])ccc32)cc1` yielded a displacement of 13.1%.
For `CC(C)C(=O)Nc1ccc(O)cc1C(=O)O`, the displacement was 8.5%.
Compound `Cc1ccccc1OCC(=O)Nc1nc(-c2ccc(Br)cc2)cs1` has a displacement of -1.9%.
With `OCCNCCOc1ccc(Cl)cc1` the displacement was -5.7%.
Work on `O=c1c(-c2ccc(Cl)cc2Cl)coc2c(CN3CCCCC3)c(O)ccc12` yielded a displacement of -18.9%.
`O=C1c2ccccc2C(=O)N1c1ccc2nc(SCc3ccc([N+](=O)[O-])cc3)sc2c1` showed a displacement of -17.4%.
With `COc1cc(C(=O)n2nc(C)cc2C)cc(OC)c1OC` the displacement was 3.5%.
Work on `CCN=C(Nc1ccc2c(c1)OCO2)SC1CC(=O)N(c2cccc(Cl)c2)C1=O` (stereo not given) yielded a displacement of 4.8%.
`COc1ccc(CSc2nc(C)cc(=O)[nH]2)cc1` showed a displacement of 1.6%.
In the case of `COc1ccc2ccccc2c1-c1cc(C(=O)NN)[nH]n1`, the displacement is reported as 6.8%.
`CC(=O)Nc1cc([N+](=O)[O-])c(N(C)S(=O)(=O)c2ccccc2)c2ccccc12` showed a displacement of 0.5%.
Work on `CCOC(=O)c1cc2n(n1)C(C(F)(F)F)CC(c1ccco1)N2` (stereo not given) yielded a displacement of -0.1%.
Compound `CC(=O)NC1=NC(=O)/C(=C\c2ccc(Cl)c(Cl)c2)S1` has a displacement of -13.5%.
In the case of `O=C(NCC1(c2ccccc2)CCOCC1)C1(c2ccccc2)CCOCC1`, the displacement is reported as -8.5%.
Work on `COc1ccccc1C(=O)Oc1ccc(C)c(C)c1` yielded a displacement of 1.8%.
`Nn1c(SCC(=O)c2ccc(Cl)cc2)nc2ccccc2c1=O` showed a displacement of 0.4%.
Work on `O=C(O)COc1c(Cl)cc(/C=C2\C(=O)NC(=O)N(c3ccc(F)cc3)C2=O)cc1Cl` yielded a displacement of 8.1%.
With `COc1ccc(NC(=S)NC(NC(=O)CC(C)C)C(Cl)(Cl)Cl)cc1OC` (stereo not given) the displacement was -6.9%.
With `CN(c1ccc(C(=O)Nc2cc(Cl)ccc2Cl)cc1)S(=O)(=O)c1ccccc1` the displacement was 5.8%.
With `O=S(=O)(NOCc1ccccc1)c1ccccc1` the displacement was 2.2%.
With `O=c1c(C2NCCC3(O)CCCCC23)coc2ccc(Cl)cc12` (stereo not given) the displacement was -4.7%.
With `COc1cc(/C=C2\SC(=S)N(C(CCC(=O)O)C(=O)O)C2=O)ccc1O` (stereo not given) the displacement was 6.4%.
